This is one part of the list.
Columns and labels:
Assay in all cases: glycan array binding signal (z-score within array); higher = stronger binding
Details in all cases: glycan notation: IUPAC condensed, linker removed
[1] = molecular target: Neu5Ac(a2-6)Gal(b1-4)GlcNAc(b1-3)Gal(b1-4)GlcNAc(b1-3)Gal(b1-4)GlcNAc(b1-2)Man(a1-3)[Neu5Ac(a2-6)Gal(b1-4)GlcNAc(b1-3)Gal(b1-4)GlcNAc(b1-3)Gal(b1-4)GlcNAc(b1-2)Man(a1-6)]GalNAc
Outline: (§1)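 Glycan array data were curated from 3228 arrays in the Consortium for Functional Glycomics database and kept only where the protein sequence was available. Glycan names were converted to IUPAC-condensed notation, and columns mapping to the same glycan were averaged. The binding signal is a within-array Z-score, averaged across arrays of the same protein sequence at different concentrations or buffers and across linkers. Negative Z-scores can be read as non-binding.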

[2] = molecular target: Neu5Ac(a2-6)Gal(b1-4)GlcNAc(b1-3)Gal(b1-4)GlcNAc(b1-3)GalNAc
Outline: as §1

[3] = molecular target: Neu5Ac(a2-6)Gal(b1-4)GlcNAc(b1-3)Gal(b1-4)GlcNAc(b1-3)[Neu5Ac(a2-6)Gal(b1-4)GlcNAc(b1-3)Gal(b1-4)GlcNAc(b1-6)]GalNAc
Outline: as §1

[4] = molecular target: Neu5Ac(a2-6)Gal(b1-4)GlcNAc(b1-3)Gal(b1-4)GlcNAc(b1-6)[Gal(b1-3)]GalNAc
Outline: as §1

[5] = molecular target: Neu5Ac(a2-6)Gal(b1-4)GlcNAc(b1-3)Gal(b1-4)[Fuc(a1-3)]GlcNAc(b1-3)Gal(b1-4)[Fuc(a1-3)]GlcNAc
Outline: as §1

[6] = molecular target: Neu5Ac(a2-6)Gal(b1-4)GlcNAc(b1-3)GalNAc
Outline: as §1

[7] = molecular target: Neu5Ac(a2-6)Gal(b1-4)GlcNAc(b1-3)[Neu5Ac(a2-6)Gal(b1-4)GlcNAc(b1-6)]GalNAc
Outline: as §1

[8] = molecular target: Neu5Ac(a2-6)Gal(b1-4)GlcNAc(b1-6)GalNAc
Outline: as §1

[9] = molecular target: Neu5Ac(a2-6)Gal(b1-4)GlcNAc(b1-6)[Gal(b1-3)GlcNAc(b1-3)]Gal(b1-4)Glc
Outline: as §1

[10] = molecular target: Neu5Ac(a2-6)Gal(b1-4)GlcNAc(b1-6)[Gal(b1-3)]GalNAc
Outline: as §1

[11] = molecular target: Neu5Ac(a2-6)Gal(b1-4)GlcNAc6S
Outline: as §1

Neu5Ac(a2-6)GalNAc = molecular target: Neu5Ac(a2-6)GalNAc
Outline: as §1

[12] = molecular target: Neu5Ac(a2-6)GalNAc(b1-4)GlcNAc
Outline: as §1

[13] = molecular target: Neu5Ac(a2-6)GalNAc(b1-4)GlcNAc6S
Outline: as §1

[14] = molecular target: Neu5Ac(a2-6)GlcNAc(b1-4)GlcNAc
Outline: as §1

[15] = molecular target: Neu5Ac(a2-6)GlcNAc(b1-4)GlcNAc(b1-4)GlcNAc
Outline: as §1

Neu5Ac(a2-8)Neu5Ac = molecular target: Neu5Ac(a2-8)Neu5Ac
Outline: as §1

[16] = molecular target: Neu5Ac(a2-8)Neu5Ac(a2-3)Gal(b1-3)GalNAc(b1-4)[Neu5Ac(a2-3)]Gal(b1-4)Glc
Outline: as §1

[17] = molecular target: Neu5Ac(a2-8)Neu5Ac(a2-3)Gal(b1-3)GalNAc(b1-4)[Neu5Ac(a2-8)Neu5Ac(a2-3)]Gal(b1-4)Glc
Outline: as §1

[18] = molecular target: Neu5Ac(a2-8)Neu5Ac(a2-3)Gal(b1-4)Glc
Outline: as §1

[19] = molecular target: Neu5Ac(a2-8)Neu5Ac(a2-3)Gal(b1-4)GlcNAc
Outline: as §1

[20] = molecular target: Neu5Ac(a2-8)Neu5Ac(a2-3)[Gal(b1-3)GalNAc(b1-4)]Gal(b1-4)Glc
Outline: as §1

[21] = molecular target: Neu5Ac(a2-8)Neu5Ac(a2-3)[GalNAc(b1-4)]Gal(b1-4)Glc
Outline: as §1

[22] = molecular target: Neu5Ac(a2-8)Neu5Ac(a2-8)Neu5Ac
Outline: as §1

[23] = molecular target: Neu5Ac(a2-8)Neu5Ac(a2-8)Neu5Ac(a2-3)Gal(b1-4)Glc
Outline: as §1

[24] = molecular target: Neu5Ac(a2-8)Neu5Ac(a2-8)Neu5Ac(a2-3)[Gal(b1-3)GalNAc(b1-4)]Gal(b1-4)Glc
Outline: as §1

[25] = molecular target: Neu5Ac(a2-8)Neu5Ac(a2-8)Neu5Ac(a2-3)[GalNAc(b1-4)]Gal(b1-4)Glc
Outline: as §1

[26] = molecular target: Neu5Ac(a2-8)Neu5Ac(a2-8)Neu5Ac(a2-8)Neu5Ac(a2-3)[GalNAc(b1-4)]Gal(b1-4)Glc
Outline: as §1

[27] = molecular target: Neu5Ac(a2-8)Neu5Gc(a2-3)Gal(b1-4)GlcNAc
Outline: as §1

[28] = molecular target: Neu5Ac(b2-6)Gal(b1-4)GlcNAc
Outline: as §1

Neu5Ac(b2-6)GalNAc = molecular target: Neu5Ac(b2-6)GalNAc
Outline: as §1

[29] = molecular target: Neu5Ac9Ac(a2-3)Gal(b1-3)GlcNAc
Outline: as §1

[30] = molecular target: Neu5Ac9Ac(a2-3)Gal(b1-4)GlcNAc
Outline: as §1

[31] = molecular target: Neu5Ac9Ac(a2-6)Gal(b1-4)GlcNAc
Outline: as §1

[32] = molecular target: Neu5Gc(a2-3)Gal(b1-3)GlcNAc
Outline: as §1

[33] = molecular target: Neu5Gc(a2-3)Gal(b1-3)[Fuc(a1-4)]GlcNAc
Outline: as §1

Neu5Gc(a2-3)Gal(b1-4)Glc = molecular target: Neu5Gc(a2-3)Gal(b1-4)Glc
Outline: as §1

[34] = molecular target: Neu5Gc(a2-3)Gal(b1-4)GlcNAc
Outline: as §1

[35] = molecular target: Neu5Gc(a2-3)Gal(b1-4)GlcNAc(b1-3)Gal(b1-4)GlcNAc(b1-2)Man(a1-3)[Neu5Gc(a2-3)Gal(b1-4)GlcNAc(b1-3)Gal(b1-4)GlcNAc(b1-2)Man(a1-6)]Man(b1-4)GlcNAc(b1-4)GlcNAc
Outline: as §1

[36] = molecular target: Neu5Gc(a2-3)Gal(b1-4)[Fuc(a1-3)]GlcNAc
Outline: as §1

[37] = molecular target: Neu5Gc(a2-6)Gal(b1-4)GlcNAc
Outline: as §1

Neu5Gc(a2-6)GalNAc = molecular target: Neu5Gc(a2-6)GalNAc
Outline: as §1

[38] = molecular target: Neu5Gc(a2-8)Neu5Ac(a2-3)Gal(b1-4)GlcNAc
Outline: as §1

[39] = molecular target: Neu5Gc(a2-8)Neu5Gc(a2-3)Gal(b1-4)GlcNAc
Outline: as §1

[40] = molecular target: Neu5Gc(a2-8)Neu5Gc(a2-3)Gal(b1-4)GlcNAc(b1-3)Gal(b1-4)GlcNAc
Outline: as §1

B1: AidA (Burkholderia cenocepacia) (protein)
chain: MSRVTDVLVSFDTETILKKYPNPSKNPAAPTLIDWRYVYMVTNQDNVISGQAGGELDLKAQVGDLIRWRETSLSLGFENQVVFYKFIGNVGNDLISTPTPRVAEASIPVPNTSKPEVPTCQKVANYYWSSECLKVGRVTYHFQFQIIDRNCQSQGCFSWDPFISIHN
[1]
  glycan array binding signal (z-score): -0.571
[2]
  glycan array binding signal (z-score): -0.056
[3]
  glycan array binding signal (z-score): 0.022
[4]
  glycan array binding signal (z-score): -0.035
[5]
  glycan array binding signal (z-score): -0.452
[6]
  glycan array binding signal (z-score): -0.116
[7]
  glycan array binding signal (z-score): -0.366
[8]
  glycan array binding signal (z-score): -0.272
[9]
  glycan array binding signal (z-score): 0.253
[10]
  glycan array binding signal (z-score): -0.153
[11]
  glycan array binding signal (z-score): 0.403
Neu5Ac(a2-6)GalNAc
  glycan array binding signal (z-score): -0.424
[12]
  glycan array binding signal (z-score): -0.106
[13]
  glycan array binding signal (z-score): 0.072
[14]
  glycan array binding signal (z-score): -0.95
[15]
  glycan array binding signal (z-score): -0.74
Neu5Ac(a2-8)Neu5Ac
  glycan array binding signal (z-score): 0.174
[16]
  glycan array binding signal (z-score): 0.068
[17]
  glycan array binding signal (z-score): 0.525
[18]
  glycan array binding signal (z-score): -0.109
[19]
  glycan array binding signal (z-score): 0.086
[20]
  glycan array binding signal (z-score): -0.288
[21]
  glycan array binding signal (z-score): 0.363
[22]
  glycan array binding signal (z-score): -0.365
[23]
  glycan array binding signal (z-score): -1.08
[24]
  glycan array binding signal (z-score): -0.422
[25]
  glycan array binding signal (z-score): -0.087
[26]
  glycan array binding signal (z-score): 0.912
[27]
  glycan array binding signal (z-score): -0.269
[28]
  glycan array binding signal (z-score): -0.385
Neu5Ac(b2-6)GalNAc
  glycan array binding signal (z-score): 0.412
[29]
  glycan array binding signal (z-score): 0.102
[30]
  glycan array binding signal (z-score): -0.338
[31]
  glycan array binding signal (z-score): -0.733
[32]
  glycan array binding signal (z-score): -0.439
[33]
  glycan array binding signal (z-score): -0.403
Neu5Gc(a2-3)Gal(b1-4)Glc
  glycan array binding signal (z-score): 0.324
[34]
  glycan array binding signal (z-score): -0.728
[35]
  glycan array binding signal (z-score): 1.06
[36]
  glycan array binding signal (z-score): 0.122
[37]
  glycan array binding signal (z-score): 0.291
Neu5Gc(a2-6)GalNAc
  glycan array binding signal (z-score): -0.606
[38]
  glycan array binding signal (z-score): -0.813
[39]
  glycan array binding signal (z-score): -0.422
[40]
  glycan array binding signal (z-score): -0.459

— the supplement of paper PMC8728848
